Experimental data: PubChem BioAssay AID761 (NMMLSC, 2007)
In all, about 190,000 compounds went through this assay and about 400 (0.21%) were called active. Inconclusive means that the source gave no clear call. Such entries were picked first, then a sample of the others.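 Rule for the calls: active = percent activity GTP binding at least 20 points away from the 100% baseline, either down as inhibitor or up as activator; inconclusive = compound flagged as likely green fluorescent from well-wide comparison; inactive = the rest.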

These compounds were tested against Cell division control protein 42 homolog (Homo sapiens) (UniProt P60953) (assay: wildtype Cdc42 fluorescent GTP binding changes, either direction – biochemical, multiplex bead flow cytometry, Bodipy-GTP, primary screen (AID 761;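 note: median bead fluorescence of bound Bodipy-FL-GTP at 100 nM; 0% = excess unlabeled GTP control and 100% = no compound control; below 100% means less GTP binding so inhibitor and above means activator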)). Conditions: GST-Cdc42 beads, at 10 µM, actives lie on both sides.
Sequence of UniProt P60953 (P60953 whole entry, looked up): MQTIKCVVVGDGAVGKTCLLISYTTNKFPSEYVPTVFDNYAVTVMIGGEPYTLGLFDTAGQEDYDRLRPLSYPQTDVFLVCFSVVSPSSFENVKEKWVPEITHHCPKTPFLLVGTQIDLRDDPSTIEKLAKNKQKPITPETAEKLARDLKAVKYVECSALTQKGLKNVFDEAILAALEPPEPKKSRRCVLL
In the case of `O=c1[nH]cc([N+](=O)[O-])cc1Br`, the percent activity (GTP binding) is reported as inactive: 95%. With `Cc1ccc(NCc2nnc(SCC(=O)Nc3cccc(O)c3)n2CC2CCCO2)c(C)c1` (stereo not drawn) the percent activity (GTP binding) was inconclusive: 100%. In the case of `Cc1noc(NS(=O)(=O)c2ccc(N/C=C/C(=O)c3ccc4c(c3)OCO4)cc2)c1C`, the percent activity (GTP binding) is reported as inconclusive: 87%. With `CCOC(=O)Nc1ccc(C)cc1NC(=O)OCC` the percent activity (GTP binding) was inconclusive: 106%. `CCOC(=O)n1c(=O)[nH]c2ccc(Br)cc21` was tested, and the percent activity (GTP binding) was inactive: 94%. In the case of `CCOc1ccc(C(=O)Cc2cc(OC)c(OC)cc2[N+](=O)[O-])cc1`, the percent activity (GTP binding) is reported as inconclusive: 107%. In the case of `OC(CNCC(c1ccco1)N1CCCCC1)c1ccccc1` (stereo not drawn), the percent activity (GTP binding) is reported as inconclusive: 107%. With `O=C(O)c1ccccc1S(=O)CCO` (stereo not drawn) the percent activity (GTP binding) was inconclusive: 108%. In the case of `CCOC(=O)c1nn(-c2ccccc2)c(=O)cc1SC(C)C`, the percent activity (GTP binding) is reported as inactive: 99%. For `COCCNc1nc2c(c(=O)n(Cc3ccc(OC)cc3)c(=O)n2C)n1C`, the percent activity (GTP binding) was inactive: 94%. With `COc1ccc(/C=C(/C#N)C(=O)Nc2ccc(O)cc2)cc1C(=O)O` the percent activity (GTP binding) was inconclusive: 73%. In the case of `O=C(NN1CCN(Cc2ccccc2)CC1)c1ccc(Cl)cc1`, the percent activity (GTP binding) is reported as inactive: 97%. In the case of `O=C(Nc1cc(Cl)c(O)c(Cl)c1)C1CCCO1` (stereo not drawn), the percent activity (GTP binding) is reported as inconclusive: 101%. `C/C(=N\Nc1ccc(C(=O)O)cc1)c1ccc(-n2ccnc2)cc1` was tested, and the percent activity (GTP binding) was inactive: 95%. With `N#CCCN1CCN(S(=O)(=O)c2cc(Cl)ccc2Cl)CC1` the percent activity (GTP binding) was inconclusive: 91%. In the case of `NC(=O)c1ccccc1NC(=S)NC(=O)CCc1ccccc1`, the percent activity (GTP binding) is reported as inconclusive: 101%. With `C/C(=N/NC(=O)c1ccoc1C)c1cccc(NC(=O)C2CC2)c1` the percent activity (GTP binding) was inconclusive: 103%. For `O=c1c2cc(NC(=S)NC3CC3)ccc2nc2n1CCCCC2`, the percent activity (GTP binding) was inconclusive: 95%. With `NC(=O)CSc1cn(Cc2ccccc2)c2ccccc12` the percent activity (GTP binding) was inactive: 91%. `N#Cc1c(N)nc2c3c(sc(=N)c2c1N)NC(=O)CC3c1ccccc1` (stereo not drawn) was tested, and the percent activity (GTP binding) was inconclusive: 81%. For `CO/N=C/NC(=O)NOCc1ncc(C(F)(F)F)cc1Cl`, the percent activity (GTP binding) was inactive: 118%. For `CN1CCC2(CC1)C1CN(C)CC=C1C(C#N)=C(N)C2(C#N)C#N` (stereo not drawn), the percent activity (GTP binding) was inconclusive: 97%. With `COc1ccc(/C=C/C(=O)C2C(=O)C=C(C)OC2=O)cc1O` (stereo not drawn) the percent activity (GTP binding) was inconclusive: 97%. With `O=c1nc(NCc2ccco2)sc2ncccc12` the percent activity (GTP binding) was inconclusive: 94%. With `COc1ccc(OC)c(/C=C/C(=O)OCC(=O)Nc2ccc3c(c2)OCCO3)c1` the percent activity (GTP binding) was inconclusive: 93%. For `O=C(O)CCC(=O)N1CCc2cc(S(=O)(=O)N3CCCCC3)ccc21`, the percent activity (GTP binding) was inconclusive: 104%. For `CCOC(=O)c1sc2nccc(N(C)C)c2c1N=CN(C)C`, the percent activity (GTP binding) was inconclusive: 106%. In the case of `Cc1sc2nc3ccc(NCc4ccco4)nn3c(=O)c2c1C`, the percent activity (GTP binding) is reported as active: 28%. `CCn1c(=O)c(C(=O)NNS(=O)(=O)c2ccc(Br)cc2)c(O)c2ccccc21` was tested, and the percent activity (GTP binding) was inconclusive: 84%. `CN(Cc1ccccc1)c1ccc(C(=O)O)cc1[N+](=O)[O-]` was tested, and the percent activity (GTP binding) was inactive: 102%. For `CC(C(=O)NC(C)(C)C)N1C(=O)c2cccc3cccc(c23)C1=O` (stereo not drawn), the percent activity (GTP binding) was inconclusive: 87%. With `CCOC(=O)C1=C(N)OC2=C(C(=O)CCC2)C1c1ccco1` (stereo not drawn) the percent activity (GTP binding) was inactive: 94%. For `CCN(C(=O)Cc1c(C(=O)O)[nH]c2ccccc12)c1ccc(OC)cc1`, the percent activity (GTP binding) was inconclusive: 94%. In the case of `CC(C)c1[nH]nc2c1C(Cc1ccccc1)C(C#N)=C(N)O2` (stereo not drawn), the percent activity (GTP binding) is reported as inconclusive: 96%. For `CN1CCN(CC(=O)N2c3ccccc3C(C)(c3ccccc3)CC2(C)C)CC1` (stereo not drawn), the percent activity (GTP binding) was inconclusive: 105%. For `COc1cc(/C=C(\C#N)c2[nH]nc(N)c2C#N)cc(OC)c1O`, the percent activity (GTP binding) was inconclusive: 92%. In the case of `Cc1ccc(N/N=C2/CCCNC2=O)cc1`, the percent activity (GTP binding) is reported as inconclusive: 96%. With `O=C(COC(=O)c1ccc2c(c1)C(=O)N(c1cccc3ncccc13)C2=O)c1ccc(Cl)cc1` the percent activity (GTP binding) was inactive: 89%. For `COc1ccccc1NC(=O)c1c(Nc2ccccc2F)sc(C(=O)Nc2cccc(Cl)c2)c1N`, the percent activity (GTP binding) was inactive: 99%. With `CCn1cnc2sc(C)c(C)c2c1=O` the percent activity (GTP binding) was inconclusive: 104%. `COc1ccc(N(CC(=O)N/N=C/c2cc(Br)c(C)o2)S(=O)(=O)c2ccc(NC(C)=O)cc2)cc1` was tested, and the percent activity (GTP binding) was inconclusive: 90%. `Cc1cc(C)nc(NC(=O)c2ccc(COc3ccccc3Cl)cc2)c1` was tested, and the percent activity (GTP binding) was inactive: 93%. For `O=C(NC12CC3CC(CC(C3)C1)C2)N1CCN(C(=O)C2CCCO2)CC1` (stereo not drawn), the percent activity (GTP binding) was inconclusive: 104%. With `O=C(c1n[nH]c(=O)c2ccccc12)N1CCN(C2c3ccccc3-c3ccccc32)CC1` the percent activity (GTP binding) was inconclusive: 41%. `Cc1ccc(-c2nc3ccccc3s2)cc1NC(=S)NC(=O)c1cccc2ccccc12` was tested, and the percent activity (GTP binding) was inconclusive: 95%. In the case of `CCc1ccc2[nH]c(=O)c(CN(Cc3ccc4c(c3)OCO4)C(=O)c3ccco3)cc2c1`, the percent activity (GTP binding) is reported as inconclusive: 90%. `CC1CCCCN1C(=O)CSc1nnc(CSc2ncccn2)n1C` (stereo not drawn) was tested, and the percent activity (GTP binding) was inactive: 103%. For `O=C(CCc1ccccc1)c1nnc(-c2ccccc2)o1`, the percent activity (GTP binding) was inactive: 93%. In the case of `FC(F)Oc1cccc(NC(=S)N2CCN(c3ccccn3)CC2)c1`, the percent activity (GTP binding) is reported as inactive: 99%. `CS(=O)(=O)N(CC(=O)NCCSc1ccccn1)c1ccc(F)cc1` was tested, and the percent activity (GTP binding) was inconclusive: 97%. With `O=S1(=O)N=C(N(CCO)/N=C/c2ccncc2)c2ccccc21` the percent activity (GTP binding) was active: 64%. In the case of `O=C(CSc1nnnn1-c1ccccc1)Nc1nsc(-c2ccc(Cl)cc2)n1`, the percent activity (GTP binding) is reported as inconclusive: 108%. `CCC(C)NCC(=O)Nc1ccc([N+](=O)[O-])cc1C(=O)Nc1ccccc1F` (stereo not drawn) was tested, and the percent activity (GTP binding) was inactive: 98%. In the case of `Cc1csc(NC(=O)C2CCN(S(=O)(=O)c3cccs3)CC2)n1`, the percent activity (GTP binding) is reported as inconclusive: 93%. In the case of `O=C(Nc1ccccc1C(=O)O)/C(=C/c1ccc([N+](=O)[O-])cc1)NC(=O)c1ccc(Br)o1`, the percent activity (GTP binding) is reported as inactive: 86%. With `CC(C)NC(=O)COc1nncc2ccccc12` the percent activity (GTP binding) was inactive: 97%. With `CCc1cc2c(SCC#N)ncnc2s1` the percent activity (GTP binding) was inactive: 95%. In the case of `Cc1ccc(N2CCN(c3ccc(C)cc3)C2c2ccncc2)cc1`, the percent activity (GTP binding) is reported as inactive: 103%. `Cc1nn(-c2ccccc2)c2sc(-c3nnc(SCC(=O)O)o3)cc12` was tested, and the percent activity (GTP binding) was inactive: 93%. `Cc1cc(=O)n2nc(N3CCCC3C(=O)NCCCN3CC(C)CC(C)C3)sc2n1` (stereo not drawn) was tested, and the percent activity (GTP binding) was inconclusive: 105%. For `CC1=C(C(=O)OCc2ccc(C)cc2)C(c2ccc(O)c([N+](=O)[O-])c2)NC(=O)N1` (stereo not drawn), the percent activity (GTP binding) was inconclusive: 92%. `CCCN1C(=O)C(O)(C2COC(C)(C)CC2=O)c2ccccc21` (stereo not drawn) was tested, and the percent activity (GTP binding) was inconclusive: 96%. In the case of `CCOc1cc(C#N)c(NC(=O)Cn2nnc3ccccc32)cc1OCC`, the percent activity (GTP binding) is reported as inconclusive: 96%. With `O=C(CSc1nnc2c3ccccc3c3ccccc3c2n1)Nc1ccccc1` the percent activity (GTP binding) was inconclusive: 92%. `COc1cccc(Nc2ccccc2C(=O)O)c1` was tested, and the percent activity (GTP binding) was active: 130% [activator]. For `Cc1ccc(S(=O)(=O)N2CCCC(C(=O)Nc3ccc(C(=O)O)cc3)C2)cc1Cl` (stereo not drawn), the percent activity (GTP binding) was inactive: 98%. For `COc1ccc(CNc2nc3nc(C)cc(C)n3n2)cc1`, the percent activity (GTP binding) was inconclusive: 104%. With `CCOC(=O)c1cc(C(=O)OCC)c(=O)[nH]c1N1CCCC1` the percent activity (GTP binding) was active: 56%. With `CCCCn1c(CNC(C)=O)nc2ccccc21` the percent activity (GTP binding) was inconclusive: 104%. With `COc1ccc(Cn2c(=O)[nH]c3cc(C(=O)NC4CCN(Cc5ccccc5)CC4)ccc32)cc1` the percent activity (GTP binding) was inconclusive: 95%. With `COc1ccc(C(=O)C2CCCN(Cc3c[nH]c4ccccc34)C2)c(OC)c1` (stereo not drawn) the percent activity (GTP binding) was inactive: 93%. `Cc1ccc(-c2nnn(CC(=O)N(c3ccc4c(c3)OCCO4)C(C(=O)NCC3CCCO3)c3ccc(F)cc3)n2)o1` (stereo not drawn) was tested, and the percent activity (GTP binding) was inconclusive: 95%. In the case of `COc1cc(OC)nc(-n2ncc(Br)c(Br)c2=O)n1`, the percent activity (GTP binding) is reported as inactive: 99%. With `c1ccc(CN(Cc2ccccc2)c2nn[nH]n2)cc1` the percent activity (GTP binding) was inactive: 91%. `CCOc1ccc(NC(=O)CC2C(=O)Nc3ccccc3N2C(=O)c2ccccc2)cc1` (stereo not drawn) was tested, and the percent activity (GTP binding) was inconclusive: 95%. For `COc1ccc(CCNC(=O)CSc2ccsc2[N+](=O)[O-])c(OC)c1`, the percent activity (GTP binding) was inconclusive: 88%. `COc1ccc(-c2csc3ncn(-c4ccc(C)cc4)c(=O)c23)cc1OC` was tested, and the percent activity (GTP binding) was inconclusive: 95%. `CCC(CC)C1=NN2C(=N)/C(=C\c3cc(C)n(-c4cccc(C)c4)c3C)C(=O)N=C2S1` was tested, and the percent activity (GTP binding) was inconclusive: 83%. With `CSc1nc2ccc(NC(=O)c3cc4ccccc4o3)cc2s1` the percent activity (GTP binding) was inactive: 98%. With `Fc1ccc(OCc2nn3c(Cn4nnc5ccccc54)nnc3s2)cc1` the percent activity (GTP binding) was inconclusive: 93%. With `Cc1ccc(C(=O)N/N=C/c2cc(C)n(-c3ccc(Br)cc3)c2C)cc1[N+](=O)[O-]` the percent activity (GTP binding) was inconclusive: 106%. In the case of `CCOC(=O)C1=NN(c2ccccc2)C(=O)/C1=C\c1ccc(N(C)C)cc1`, the percent activity (GTP binding) is reported as inconclusive: 92%. `O=C(NCCCCNC(=O)c1ccc(Cl)s1)c1ccc(Cl)s1` was tested, and the percent activity (GTP binding) was inconclusive: 104%. For `O=C(NCc1cc(Br)cc(Br)c1OC(=O)c1ccccc1[N+](=O)[O-])c1ccccc1`, the percent activity (GTP binding) was inactive: 100%. With `CCCN(c1nc(C)cc(OC)n1)S(=O)(=O)c1ccccc1` the percent activity (GTP binding) was inconclusive: 94%. For `N#CCc1nn(-c2ccc(F)cc2)c(N)c1C#N`, the percent activity (GTP binding) was inconclusive: 82%. For `O=C(Nc1ccc(Br)cc1)c1csc(-c2ccncc2)n1`, the percent activity (GTP binding) was inconclusive: 91%. `CC(C)c1cc(NCc2ccccn2)n2c(nc3ccccc32)c1C#N` was tested, and the percent activity (GTP binding) was inconclusive: 73%. For `COC(=O)CCNS(=O)(=O)c1ccc2ccccc2c1`, the percent activity (GTP binding) was inconclusive: 94%. In the case of `COc1ccc(C(=O)Nc2cccc(-c3cc4ccccc4oc3=O)c2)cc1[N+](=O)[O-]`, the percent activity (GTP binding) is reported as inactive: 107%. In the case of `COc1cccc(OCCOCCN(C)CCO)c1`, the percent activity (GTP binding) is reported as inconclusive: 105%. With `O=[N+]([O-])c1ccc2nc(-c3ccc(Cl)cc3)n(OCc3ccccc3)c2c1` the percent activity (GTP binding) was inconclusive: 102%. With `O=S(=O)(c1ccc2nc(SCc3cccc(Cl)c3)[nH]c2c1)N1CCOCC1` the percent activity (GTP binding) was inconclusive: 95%.
